{
  "source": "the RNAGym collection of RNA variant scans (doi:10.1093/nar/gkz1192)",
  "parents": {"B1": {"name": "CPEB3 Ribozyme (parent)", "chain": "UAACAGGGGGCCACAGCAGAAGCGUUCACGUCGCAGCCCCUGUCAGAUUCUGGUGAAUCUGCGAAUUCUGCUGUAUAUCUC"}},
  "note": "Read counts are not given, so values of variants with three or more changes are uncertain.",
  "data": [
    {"variants_of": "B1", "assay": "self-cleavage, relative activity (ratio to wild type); higher = more cleavage; in vitro, sequencing", "method_in_brief": "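CPEB3 self-cleaving ribozyme mutant libraries were made by rounds of error-prone PCR, barcoded, and transcribed in vitro with T7 RNA polymerase for 5 hours at 37°C. Cleavage occurred during transcription and a 15 min DNase I step before EDTA stop. RNAs were reverse transcribed with template switching and Illumina-sequenced, with DNA sequencing mapping barcodes to variants. Relative activity is the variant's cleaved/total read fraction divided by wild type's (minimum 5 reads), averaged across three batches.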", "values": [
      {"variant": "UAACAGGGGGCCACAGCAGUAGCGUUCACGUCGCAGCCCCUGUCAGUUUCUGGUGGAUCUGCUAAUCCUGCUGCAUAUCUC", "self-cleavage": 0.07},
      {"variant": "UAACAGGGGGCCACAGCAGUAGCGUUCACGUCGCAGCCCCUGUCAGAUUCUGGUGAAUCUGCGAGUUCCGCUGUACAUCUC", "self-cleavage": 0.14},
      {"variant": "UAACAGGGGGCCACAGCAGUAGCGUUCACGUCGCAGCCCGUGUCAGAUUCUGGUGAAUCUGCGAAUUCUGCUGUAUAUCCC", "self-cleavage": 0.14},
      {"variant": "UAACAGGGGGCCACAGCAGUAGCGUUCACGUCGCAGCCCCUGUCAGGUUCUGGUGAAUCUGCGAAUUCUGCGGUAUAUCUC", "self-cleavage": 0.12},
      {"variant": "UAACAGGGGGCCACAGCAGUAGCGUUCACGUUGCUGCCCCCGUCAGAUCCUGGUGUAUCUGCGAAUUCUGCUGUAUAUCUC", "self-cleavage": 0.05},
      {"variant": "UAACAGGGGGCCACAGCAGUAGCGUUCACGUCGCAGCCCCUGUCAGUUUCUGGUGAGUCUGCGAAUUCAGCUGUAUAUCUC", "self-cleavage": 0.16},
      {"variant": "UAACAGGGGGCCACAGCAGUAGCGUUCACGUCGCAGCCCCUGUCAGAUUCUGGUGAAUCUGCGACUUCUGCUGCAUAUCUC", "self-cleavage": 0.15},
      {"variant": "UAACAGGGGGCCACAGCAGUAGUGUUCACGUCGCAGCCCCUGUCAGACUCUGGCGAAUCUGCGAAUUCUGCUGUAUAUCUC", "self-cleavage": 0.09},
      {"variant": "UAACAGGGGGCCACAGCAGUAGCGUUCACGUAGCAGCCCCUGACAGAUUCUGGUGAAUCUGCGUAUUCUGCUGUAUAUCUC", "self-cleavage": 0.07},
      {"variant": "UAACAGGGGGCCACAGCAGUAGCGUUCACGUUGCAGCCCCCGUCAGAUUCUGGUGAAUCUGCGAAUUCUGCUGUAUAUCUC", "self-cleavage": 0.22},
      {"variant": "UAACAGGGGGCCACAGCAGUAGCGUUCACGUCGCAGCCCCUGUCAGAUUCUGGUGUAUCUGCGAAUACUGCUGUAUAACUC", "self-cleavage": 1.04},
      {"variant": "UAACAGGGGGCCACAGCAGUAGCGUUCACGUCGCAGCCCCUGUCAGGUCCUGGUGUAUCUGCGAAUUCUCCUGUAUAUCUC", "self-cleavage": 0.22},
      {"variant": "UAACAGGGGGCCACAGCAGUAGCGUUCACGUCGCAGCCGCUGUCAGGUUCUGGUGAAUCUGCGAUUUCUGCUGUAUAUCUC", "self-cleavage": 0.07},
      {"variant": "UAACAGGGGGCCACAGCAGUAGCGUUCACGUCGCAGCGCCUGUCAGAUUCUGGUGAAUCAGCGAAUUCUGCUGUAUAACUC", "self-cleavage": 0.1},
      {"variant": "UAACAGGGGGCCACAGCAGUAGCAUUCACGUCGCUGCCCCUGUCAGAUUCUGGUGAAUCUGCGAAUUCUGCUGUAUAUCUC", "self-cleavage": 0.16},
      {"variant": "UAACAGGGGGCCACAGCAGUAGUGUCCACGUCGCAGCCCCUGUCAGAUUCUGGUGAAUCCGCGAAUUCUGCUGUAUAUCUC", "self-cleavage": 0.18},
      {"variant": "UAACAGGGGGCCACAGCAGUAGCGUUCACGUCGCAGCCACUGUCAGAUUCUGGUGAAUCUGCGAAUUCUGCAGCAUAUCUC", "self-cleavage": 0.27},
      {"variant": "UAACAGGGGGCCACAGCAGUAGCGUUCACGUCGCAGCCCCUGUCAGAUUCUGGUGAAUCUGCGAAUUCUGCUAAAUAUCUC", "self-cleavage": 0.63},
      {"variant": "UAACAGGGGGCCACAGCAGUAGCGUUCACGUCGCAGCCCCUGUCAGGUUCUGGUGAAUCUGCGAAUUCAGCUGUAUAUCUC", "self-cleavage": 0.12},
      {"variant": "UAACAGGGGGCCACAGCAGUAGCGUUCAAGACGCAGCCCCUGUCAGAUUCUGGUGAAUCUGCGAAUUCUGCUGUAUAUCUC", "self-cleavage": 0.19},
      {"variant": "UAACAGGGGGCCACAGCAGUAGCCUUCACGUCGCAGCCCCUGACAGAAUCUGGUGGAUCUGCGAAUUCUGCUGUAUAUCUC", "self-cleavage": 0.15},
      {"variant": "UAACAGGGGGCCACAGCAGUAUCGUUCACGUCGCAGCCCCUGUCAGAUUCUGGUGAAUCUGCGAAUUCUGCUGUAUACCUC", "self-cleavage": 0.13},
      {"variant": "UAACAGGGGGCCACAGCAGUAGCGUUCACGUCGCAGCCCCUGUCAGAUUCUGGUGGAUCUGCGAAUUCUGCUGAAUAUCCC", "self-cleavage": 0.27},
      {"variant": "UAACAGGGGGCCACAGCAGUAGCGUUCACGUCGCAGUCCCUGUCGGAUUCAGGAGAAUCUGCGAAUUCGGCUGUAUAUCUC", "self-cleavage": 0.07},
      {"variant": "UAACAGGGGGCCACAGCAGUAGCGUUCACGUCGCAGUCCGUGUCAGUUUCUGGUGAAUCUGCGAAUUCUGCUGUAUAUCUC", "self-cleavage": 0.17},
      {"variant": "UAACAGGGGGCCACAGCAGUAGCGUUCACGUCGCAGCCCAUGUCAGAUUCUGGUGAGUCUGCGAAUUCUGCUGUAUAUCUC", "self-cleavage": 0.13},
      {"variant": "UAACAGGGGGCCACAGCAGUAGAGUUCACGUCGCAGCCCCUGUCAGAUUCUGGUGAACCUGCGAAUUCUGCUGUAUAUCUC", "self-cleavage": 0.29},
      {"variant": "UAACAGGGGGCCACAGCAGUAGCGAUCGCGUCGCAGCCCCAGUCAGAUUCUGGUGAAUCUGCGAAUUCAGCUGUAUAUCUC", "self-cleavage": 0.05},
      {"variant": "UAACAGGGGGCCACAGCAGUAGCAUUCACGUCGCGGCCCCUGUCAGGUUCUGGUGAAUCUGCGAAUUCUGCUGUAUAUAUC", "self-cleavage": 0.24},
      {"variant": "UAACAGGGGGCCACAGCAGUACCGAUCACGUCGCAGCCCUUGUCAGAUUCUGGUGAAUCUGCGGAUUCUGCUGUAUGUCUC", "self-cleavage": 0.06},
      {"variant": "UAACAGGGGGCCACAGCAGUAGCGUUCACGUCGCAGCCCCUGUCAGAUUCUGAUGAAUUUGCUAAUUCUGCUGUAUAUCUC", "self-cleavage": 0.1},
      {"variant": "UAACAGGGGGCCACAGCAGUAGCGUUCACGUCGCAGCCCAUGUCAGAUUCUGGUGAGUCCGCGAAUUCUACUGUAUAUCUC", "self-cleavage": 0.08},
      {"variant": "UAACAGGGGGCCACAGCAGUAGCGUUCACGUCGCAGCCCCUGUCAGAUUCUGGUGAAUCUGCGGAUUCAGCUGUAUAUCUC", "self-cleavage": 0.11},
      {"variant": "UAACAGGGGGCCACAGCAGUAGCGUUCACGUCGCAGCCCUUGUCAGAUUCUGGUGAAUCUGCGGAUUCUGCUGUACAUCUC", "self-cleavage": 0.1}
    ]}
  ]
}
